Assay results taken from the supplement of paper PMC11417369.
The other results are listed elsewhere or left out.

Tested on: PfSIP2 AP2 domain 1 (GST-tagged)
Experiment: gcPBM binding intensity (ln(normalized median fluorescence intensity)); higher = stronger DNA binding
Summary of the method: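 GST-fused DNA-binding domains of P. falciparum, expressed in E. coli, were applied at about 25 μg on average for 1 h to an Agilent 4 × 180k array of primer-extended double-stranded 36-bp intergenic genomic probes and negative controls. Binding intensity is the highest Masliner-normalised natural-log median intensity across replicate spots of either probe orientation, measured with Alexa488 anti-GST antibody and a 488 nm scan.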

Row | Sequence | gcPBM binding intensity (ln)
1 | AAAAAAAAAAAAAAATGTACATATATAATATTTATA [XGTACX_site5117] | 7.32
2 | TACAAAATGTTATATCAATATAGATAAAAAAATGAA [XGTACX_negctrl_site285] | 7.29
3 | TTTTTATTTTTTGAAACACACACAAAAAAAATGATA [CACACA_site8564] | 7.01
4 | AAACAAATATATATATGTACTTATAAAAAAAAAAAT [XGTACX_site2211] | 7.12
5 | TAAGGATATATATATTCACACACACCGGGAAATATA [CACACA_site8020] | 6.81
6 | CATTTTTTGCTTTCAACACACATACAATATATATAA [CACACA_site6127] | 7.26
7 | AAGGATCACGCACAAACACACATATTTATATTTATA [CACACA_site6405] | 6.98
8 | CTTTATTTTTTATACACACACAATATGTATATATAT [CACACA_site3550] | 7.59
9 | TATATATGGAAAAGAGTCAAAAAGAAAAAAGAAAAA [CACACA_negctrl_site1374] | 6.94
10 | TATGAAATATTTATACACAGAACTTCATAATTTTCA [TGCATGCA_negctrl_site509] | 6.79
11 | TTTTTGTATTCTTCTTCTTCCAGACTACATTATGTC [XGTACX_negctrl_site235] | 6.81
12 | ATATATTTAAAATTGACACACATTTAATGACATTTT [CACACA_site3112] | 6.96
13 | TTTTTTTTTTTTTTTACACACATTTGAATAACTTTA [CACACA_site6810] | 6.95
14 | TATATGGGATATATGTGTACATATAAAATATGTATC [XGTACX_site3365] | 7.14
15 | CTTAATATGAATAAAACACACATATATAATTTGTAA [CACACA_site5120] | 6.96
16 | AAAAGAATTAAAAAATGTACATATAATATATATATA [XGTACX_site6721] | 8.62
17 | AAAAAAGAAGACATCTAAGTAATAGTAACAATGTAT [CACACA_negctrl_site1660] | 6.98
18 | GACATATTATTCATGTGTACATATTATATGTATATA [XGTACX_site3442] | 7.13
19 | AAGAATTTAGAAGGCATGCACTTAAACATGCATATA | 9.26
20 | TATAAATATACACCCACACACATATATAAATAAATA [CACACA_site7717] | 7.25
21 | CATATAATAAATAATACACACATATTGTAAATATAT [CACACA_site5734] | 6.94
22 | GTAATGAACAAACACAAAAAAAAAAAAAAAATAATA [TGCATGCA_negctrl_site344] | 6.91
23 | AATTGAGTATCGTGAGTGCAAAACGTGGTTCAAAGA | 8.56

Row | Sequence | gcPBM binding intensity (ln)
24 | TAAAATAAAATAAAATGTACTTTCCTTTTGATAATA [XGTACX_site6288] | 6.72
25 | TTTTCCCTTACAGAAAAAAAAAAATTCCTAACCCCG [CACACA_negctrl_site650] | 7.04
26 | ATATATTTTAGGAGAGTGCATTTAATATTATTTAAT [GTGCAC_site9444] | 8.99
27 | TTATATATTTATAATCGTACAATAATTAACGTAAAA [XGTACX_site3206] | 7.19
28 | TTTTTCTTTTTTTTTTCCTTTATCACATAAGAAAAA [CACACA_negctrl_site192] | 6.97
29 | AAGATATGAGGGAATACACACATATATATATATATA [CACACA_site1581] | 9.62
30 | AAAATGAAGAAGTGCACACATATATATATTTATATA [CACACA_site507] | 10.7
31 | AAGAAAATAAATAATACACACAAGGATTTGTAAATA [CACACA_site690] | 6.72
32 | CTTTTTTTTTAAAAATGTACACATTTTTGAAAATAC [XGTACX_site3127] | 7.09
33 | ATATGTTTGATTTTTTTTTTTTTTTTTTTTATGTGT [CACACA_negctrl_site1001] | 7.06
34 | AAAAAAAAAATTAAAAGTACAGAAAATAAATAAATA [XGTACX_site7470] | 6.85
35 | TTAATACACCATAAAAGTACATAATATGATATTTAA [XGTACX_site8561] | 7.03
36 | TTATAAAAAGAACAATTAAAAAAAAATAAAATAAAA [XGTACX_negctrl_site398] | 6.88
37 | AGAATAGTGGAAAACACACACGTTTGAGATATGGAC [CACACA_site4782] | 7.19
38 | CACCCACCCACATACACACACATACACATATATATA [CACACA_site1722] | 7.65
39 | TTTTTATGTTCTATATATATATATATATATATATAT [GTGCAC_negctrl_site306] | 9.54
40 | GCACGTGTGATTAGATGTACATAACATGTATATGTC [XGTACX_site4632] | 7.14
41 | ATACATACATATGTATGTACGTATGTATGTATGTAT [XGTACX_site3853] | 7.22
42 | CAAATAAAAAAAGTAGCACACATGAATAAAATATAT [CACACA_site3130] | 7.07
43 | CATAATATATATTGAGCATGCTACTATTGTTAGAAA [TGCATGCA_site740] | 6.93
44 | ACATATAAGATATATACACACATATAAATACATTAA [CACACA_site7763] | 7.17
45 | AAAAAAAAAAACTACACACATACAAATATTTATATA [CACACA_site2574] | 7.03
46 | ATTAAATCATATGAATGTACGGATATATATATTTCC [XGTACX_site8650] | 6.9

Row | Sequence | gcPBM binding intensity (ln)
47 | TGATAAATTTTCACATGTACATATATAGAATAACCT [XGTACX_site2860] | 7.16
48 | TAATAAGTATCAAAATGTACATGACAAAAATAATTT [XGTACX_site8961] | 6.99
49 | TCTAAAAAAATTATATCACACATTATAAAGCATATT [CACACA_site4885] | 6.67
50 | TATACACATAGACACACACACATACACGCACATACA [CACACA_site6908] | 7.33
51 | ATATATATGTATATATGTACATATATGTATATATAT [XGTACX_site4772] | 7.69
52 | ATAATTTTATATAAATGTACATACATTTTTATTATA [XGTACX_site7368] | 7
53 | ATAATATATGCAAAAACATGCACATAATATGTAAAA [TGCATGCA_site742] | 9.05
54 | ATTTGAAAAAATACTACACACCATATTGTTAATTTT [CACACA_site3829] | 6.77
55 | AAGATTCATATAAAAAGTACAAAAAGAAAAAAATAA [XGTACX_site6033] | 6.89
56 | ATATCTTCACTTATATGTACTTACATTTTTTTTTTT [XGTACX_site8696] | 7.26
57 | ATTTGTATATAATATATATAATTTTTTTTTTTTGTT [XGTACX_negctrl_site425] | 6.92
58 | ATAACTATATACATCTGTACATAATACATAGATAAA [XGTACX_site2795] | 7.07
59 | ATATATATATATGTATGTATATATATATGTTTGATT [XGTACX_negctrl_site62] | 9.56
60 | ATGAATTAACCTAATCGTACAATAAATATTATTATA [XGTACX_site596] | 6.95
61 | ACTATTTAAAAATATGGTACACGAAATTCAAGAGAA [XGTACX_site5903] | 7.37
62 | TTGTTTATGTGAGAAGTGCATTTTTTCGTTCATGTA | 8.96
63 | ATATGTTTAAAAATATGTACGTATTATATATTCTAT [XGTACX_site1358] | 7.21
64 | TTTTTTATTTTGTTGAAGCAATGAAAATGAATGAAA [TGCATGCA_negctrl_site495] | 7.24
65 | AAGTTTTATATTTATTAAATTTTTTTTTTTCCTTTT [XGTACX_negctrl_site184] | 6.45
66 | ATGTAAGTATAAAATGTGCGCATTGGGAATGAGGAC | 7.95
67 | TTTATATAAGGACATGCATGCTATTATTAAATATAT [TGCATGCA_site1011] | 6.89
68 | TAATATATAAATATATGTACATAATAAATAGGATAT [XGTACX_site3661] | 7.16
69 | ACTTCATAGGTTACCTGTACATATAAGGAGTTATCA [XGTACX_site4110] | 7

Row | Sequence | gcPBM binding intensity (ln)
70 | TACGCGAAATGAATATGTACATATATGAGGGCATAT [XGTACX_site4293] | 7.05
71 | GGAAACCCTCCCAAATGTACTTTTATAAAAAAATAC [XGTACX_site5502] | 7.13
72 | TATACTCAGAAACACACACACACACCCAAAAAAAAA [CACACA_site4434] | 7.3
73 | TTTGCCATAAAACACACACACATGTAAACCCCCTTT [CACACA_site1646] | 7.57
74 | ATATAAGTACATATAACACACATATATTATAAGTAT [CACACA_site2647] | 7.3
75 | AAAAAAAAAAAAAAAACACACATACACCCAGACACA [CACACA_site5807] | 7.64
76 | ATACATATATAAATATGTACACACATATGTATGATC [XGTACX_site8219] | 6.99
77 | GATATAAGGGTATGAAGTACATAAATATTTTATGCT [XGTACX_site1886] | 6.98
78 | TTTTTATTTTTTGTCTGTACATATATAAATTTATTA [XGTACX_site1525] | 7.22
79 | TATGCACGCGAACACACACACACAACTAAAAAATAA [CACACA_site7251] | 7.45
80 | TATATTCTTTTAAACAGTACACACACACATATATAT [XGTACX_site1701] | 7.55
81 | AATATAAAAATATAAAAACACACGTAAAAAAATTTA [CACACA_site3399] | 6.98
82 | TTTTATTTATAATATATACACACTAACATTATTTAT [CACACA_site1284] | 6.87
83 | GAATATTTATCATGGGGTACCTTAAAAAAGGGAAAA [XGTACX_site298] | 6.93
84 | ATATCTTAAATTATTTGTACATATATATATATATAT [XGTACX_site8034] | 9.13
85 | AATATAAACCCAAACACACACATATATATATATATA [CACACA_site268] | 9.29
86 | TTTTTTTTTTTGAGGAGGACACAAAAATATGCTACC [XGTACX_site756] | 7.31
87 | TTAACGCTTATTTTTTGTACTTATTTTATTTTAAAT [XGTACX_site3977] | 7.22
88 | CAACATTAATATAAAGCACACATATATATAATATAT [CACACA_site8064] | 6.98
89 | ACTCTATAATAAAATACACACAAGACTATCTAATAT [CACACA_site1796] | 7.21
